T1: RBFOX1 RRM (Homo sapiens, UniProt Q9NWB1 109-208)
T1 sequence: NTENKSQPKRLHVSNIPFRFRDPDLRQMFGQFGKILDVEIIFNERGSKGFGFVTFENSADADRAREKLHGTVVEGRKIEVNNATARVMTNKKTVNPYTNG

B1: CCUUUUU (DNA:RNA)
RNA: GGGAGACCGGAAUUCAGAUUGUCCCCUUUUUUUAAAUCCCGUCGUAGCCACCA
DNA 1: CAATCTGAATTCCGGTCTCCC
DNA 2: TGGTGGCTACGACGGGATT
B2: UCCUGAA (DNA:RNA)
RNA: B1 RNA with C25U, U27C, U29G, U30A, U31A
DNA 1: CAATCTGAATTCCGGTCTCCC
DNA 2: TGGTGGCTACGACGGGATT
B3: GGUUUUG (DNA:RNA)
RNA: B1 RNA with C25G, C26G, U31G
DNA 1: CAATCTGAATTCCGGTCTCCC
DNA 2: TGGTGGCTACGACGGGATT
B4: CAAUCGU (DNA:RNA)
RNA: B1 RNA with C26A, U27A, U29C, U30G
DNA 1: CAATCTGAATTCCGGTCTCCC
DNA 2: TGGTGGCTACGACGGGATT
B5: GUUGUCA (DNA:RNA)
RNA: B1 RNA with C25G, C26U, U28G, U30C, U31A
DNA 1: CAATCTGAATTCCGGTCTCCC
DNA 2: TGGTGGCTACGACGGGATT
B6: AUAAGAU (DNA:RNA)
RNA: B1 RNA with C25A, C26U, U27A, U28A, U29G, U30A
DNA 1: CAATCTGAATTCCGGTCTCCC
DNA 2: TGGTGGCTACGACGGGATT
B7: AACAAGU (DNA:RNA)
RNA: B1 RNA with C25A, C26A, U27C, U28A, U29A, U30G
DNA 1: CAATCTGAATTCCGGTCTCCC
DNA 2: TGGTGGCTACGACGGGATT
B8: CGUCGGU (DNA:RNA)
RNA: B1 RNA with C26G, U28C, U29G, U30G
DNA 1: CAATCTGAATTCCGGTCTCCC
DNA 2: TGGTGGCTACGACGGGATT
B9: GAAACAU (DNA:RNA)
RNA: B1 RNA with C25G, C26A, U27A, U28A, U29C, U30A
DNA 1: CAATCTGAATTCCGGTCTCCC
DNA 2: TGGTGGCTACGACGGGATT
B10: UUAUGCA (DNA:RNA)
RNA: B1 RNA with C25U, C26U, U27A, U29G, U30C, U31A
DNA 1: CAATCTGAATTCCGGTCTCCC
DNA 2: TGGTGGCTACGACGGGATT
B11: GGAUCGU (DNA:RNA)
RNA: B1 RNA with C25G, C26G, U27A, U29C, U30G
DNA 1: CAATCTGAATTCCGGTCTCCC
DNA 2: TGGTGGCTACGACGGGATT
B12: AUUAAUA (DNA:RNA)
RNA: B1 RNA with C25A, C26U, U28A, U29A, U31A
DNA 1: CAATCTGAATTCCGGTCTCCC
DNA 2: TGGTGGCTACGACGGGATT
B13: UCACGAG (DNA:RNA)
RNA: B1 RNA with C25U, U27A, U28C, U29G, U30A, U31G
DNA 1: CAATCTGAATTCCGGTCTCCC
DNA 2: TGGTGGCTACGACGGGATT
B14: UCGCUGC (DNA:RNA)
RNA: B1 RNA with C25U, U27G, U28C, U30G, U31C
DNA 1: CAATCTGAATTCCGGTCTCCC
DNA 2: TGGTGGCTACGACGGGATT
B15: AAUAGAG (DNA:RNA)
RNA: B1 RNA with C25A, C26A, U28A, U29G, U30A, U31G
DNA 1: CAATCTGAATTCCGGTCTCCC
DNA 2: TGGTGGCTACGACGGGATT
B16: CUAUUUU (DNA:RNA)
RNA: B1 RNA with C26U, U27A
DNA 1: CAATCTGAATTCCGGTCTCCC
DNA 2: TGGTGGCTACGACGGGATT
B17: AACCAGC (DNA:RNA)
RNA: GGGAGACCGGAAUUCAGAUUGUCCAACCAGCUUAAAUCCCGUCGUAGCCACCA
DNA 1: CAATCTGAATTCCGGTCTCCC
DNA 2: TGGTGGCTACGACGGGATT
B18: CUAGAAU (DNA:RNA)
RNA: B1 RNA with C26U, U27A, U28G, U29A, U30A
DNA 1: CAATCTGAATTCCGGTCTCCC
DNA 2: TGGTGGCTACGACGGGATT
B19: CGCAUUC (DNA:RNA)
RNA: B1 RNA with C26G, U27C, U28A, U31C
DNA 1: CAATCTGAATTCCGGTCTCCC
DNA 2: TGGTGGCTACGACGGGATT
B20: GAUUUUG (DNA:RNA)
RNA: B1 RNA with C25G, C26A, U31G
DNA 1: CAATCTGAATTCCGGTCTCCC
DNA 2: TGGTGGCTACGACGGGATT

Positions count from the first letter of the chain named. The list shows a part of the results.

The target in this assay is T1, RBFOX1 RRM. Briefly: EMSA; HiTS-Eq, 1 nM pool, 10 min; buffer printed only for the single-RNA assays: 10 mM Tris pH 7.5, 150 mM NaCl, 3.4 mM EDTA, 0.001% NP-40, 30 C. The conditions noted are these: tags: His6 N-terminal (pET28a); label: 5' 32P. In short, it runs like this: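 Purified wild-type or mutant RbFox RRM at increasing concentrations was equilibrated with 1 nM of 5′-radiolabelled RNA carrying 7 randomized nucleotides for 10 min in 50 µL. Unbound RNA was separated by 8% native PAGE and sequenced. Relative association constants came from read-count changes of each RNA species compared with the control reaction, normalised to the cognate motif.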
On to B1, for which the binding signal is 0.00705 KA relative to UGCAUGU. As for B2, the figure is 0.0155 KA relative to UGCAUGU; as for B3, 0.0205 KA relative to UGCAUGU; as for B4, 0.00595 KA relative to UGCAUGU. The value for B5 was 0.0142 KA relative to UGCAUGU. As for B6, the figure is 0.00408 KA relative to UGCAUGU; as for B7, 0.00231 KA relative to UGCAUGU. In the case of B8, the binding signal is 0.0152 KA relative to UGCAUGU. The value for B9 was 0.0042 KA relative to UGCAUGU; that for B10 was 0.0183 KA relative to UGCAUGU; that for B11 was 0.0112 KA relative to UGCAUGU. With B12, the binding signal is 0.00218 KA relative to UGCAUGU. Regarding B13, the binding signal is 0.0108 KA relative to UGCAUGU.

Consider B14, for which the binding signal is 0.0198 KA relative to UGCAUGU. The value for B15 was 0.00685 KA relative to UGCAUGU. Turning to B16, the binding signal is 0.00632 KA relative to UGCAUGU. The value for B17 was 0.000821 KA relative to UGCAUGU. As for B18, the binding signal was 0.00687 KA relative to UGCAUGU. The value for B19 was 0.0132 KA relative to UGCAUGU. For the molecule B20, the binding signal is 0.0202 KA relative to UGCAUGU.
